{
  "source": "PubChem BioAssay AID463173",
  "about": "(ICCB-Longwood Screening Facility, Harvard Medical School, 2010)",
  "note": "Hit rate of the full screen: of about 52,000 compounds, about 4,300 (8.3%) were called active. No stated cut-off is given here; in the data, active means survival mostly below about 52% (no sharp cut-off); inactive means mostly above about 56%. This is one part of the list.",
  "data": [
    {"test_system": "DeltatarO mutant", "experiment": "S. aureus survival, RN4220 and DeltatarO strains – OD600, teichoic acid synthesis inhibitors, primary screen (AID 463173)", "settings": "S. aureus RN4220 wild type/DeltatarO growth, OD600, 18 h, stronger effect = lower value, screened at 18.75 µg/mL (by protocol)", "values": [
      {"smiles": "Cc1ccc(Cl)cc1NS(=O)(=O)c1ccc2oc(=O)c3ncn(C)c3c2c1", "survival": "inactive: 124%"},
      {"smiles": "Cc1ccc2c(c1)C(=O)OC(C(=O)Nc1ncc(Cc3ccc(C(C)C)cc3)s1)C2", "note": "(configuration not stated)", "survival": "inactive: 83%"},
      {"smiles": "CCN(C(=O)CCS(=O)(=O)c1cc2[nH]c(=O)c(=O)[nH]c2cc1C)c1ccccc1", "survival": "inactive: 92%"},
      {"smiles": "COc1ccc(-c2noc(N3CCC(C(=O)Nc4ccc(F)cc4Cl)CC3)n2)cc1", "survival": "inactive: 71%"},
      {"smiles": "COc1ccccc1OCc1nnc(SCCN2CCOCC2)o1", "survival": "inactive: 59%"},
      {"smiles": "COc1ccc(C)cc1NC(=O)c1ccc2c(=O)n3c(nc2c1)CCCCC3", "survival": "inactive: 65%"},
      {"smiles": "Cc1cccc(-c2nc3c4ccccc4nc(N4CCN(c5ccccc5F)CC4)n3n2)c1", "survival": "inactive: 65%"},
      {"smiles": "Cc1ccc(NC(=O)C(Cc2ccccc2)n2cccc2)cc1", "note": "(configuration not stated)", "survival": "inactive: 76%"},
      {"smiles": "O=C(O)C1CCCN1C(=O)c1cncc(Br)c1", "note": "(configuration not stated)", "survival": "inactive: 64%"},
      {"smiles": "COc1ccccc1OCCCSc1nc(-c2ccc(C(C)(C)C)cc2)nc2cc(=O)[nH]n12", "survival": "inactive: 81%"},
      {"smiles": "COCCCn1c(=O)c2sccc2n2c(CCCC(=O)Nc3cc(C)cc(C)c3)nnc12", "survival": "inactive: 64%"},
      {"smiles": "COc1ccc(CNC(=O)Cn2ncc3c4ccccc4n(Cc4cccc(Cl)c4)c3c2=O)cc1", "survival": "inactive: 86%"},
      {"smiles": "COc1ccc(OC)c(NCc2cccn2-c2nnc(N3CCCCC3)s2)c1", "survival": "inactive: 93%"},
      {"smiles": "CN1CCc2c(sc3c2C(=O)NC(c2ccc(OC(=O)c4ccccc4)cc2)N3)C1", "note": "(configuration not stated)", "survival": "inactive: 43%"},
      {"smiles": "Cc1ccc(C)c(S(=O)(=O)c2cn(C)c3cc(N4CCCCC4C)c(F)cc3c2=O)c1", "note": "(configuration not stated)", "survival": "inactive: 86%"},
      {"smiles": "Cc1nc2nncn2c(Nc2ccccc2)c1C", "survival": "inactive: 78%"},
      {"smiles": "COc1ccc(OC)c(NC(=O)c2c(N3CCCC3=O)c3cc(OC)ccc3n2C)c1", "survival": "inactive: 78%"},
      {"smiles": "CCOC(=O)c1c(-c2ccccc2)csc1NC(=O)c1cc(=O)c2ccc(C)cc2o1", "survival": "inactive: 75%"},
      {"smiles": "CCc1nn2c(=O)cc(COC(=O)c3cccc(NC(=O)c4cccs4)c3)nc2s1", "survival": "inactive: 94%"},
      {"smiles": "CCc1cccc(C)c1NC(=O)Cn1cnc2c1c(=O)n(C)c(=O)n2C", "survival": "inactive: 74%"},
      {"smiles": "Cc1ccccc1-n1nc(CO)c(C(=O)NCc2cccnc2)n1", "survival": "inactive: 92%"},
      {"smiles": "COc1cc(C2NC(=O)c3c(sc4c3CCN(C)C4)N2)cc(Br)c1OC(=O)c1ccc(C)cc1", "note": "(configuration not stated)", "survival": "inactive: 68%"},
      {"smiles": "COCCNC(=O)Nc1cc(C(=O)NCc2ccc(C(C)C)cc2)ccc1N1CCCC1", "survival": "inactive: 76%"},
      {"smiles": "CCOC(=O)C1CCN(C(c2ccc(SC)cc2)c2c(O)cc(C)n(Cc3ccco3)c2=O)CC1", "note": "(configuration not stated)", "survival": "inactive: 124%"},
      {"smiles": "COC(=O)c1cc2sc(Cl)cc2n1Cc1c(C)cc(C)cc1C", "survival": "inactive: 98%"},
      {"smiles": "CCn1c2ccccc2c2cc(NC(=O)COc3ccc(C)cc3C)ccc21", "survival": "active: -5%"},
      {"smiles": "COc1ccc(-c2c(C)c3ccc(O)c(CN4CCOCC4)c3oc2=O)cc1", "survival": "inactive: 90%"},
      {"smiles": "CCCCNC(=O)C1CCN(S(=O)(=O)CCC)CC1", "survival": "inactive: 71%"},
      {"smiles": "COc1ccc(OC)c(CNC(=O)c2ccc(C)c(NC(=O)c3nsc4ccccc34)c2)c1", "survival": "inactive: 75%"},
      {"smiles": "Cc1ccc(Cn2c(CNS(=O)(=O)c3cccc([N+](=O)[O-])c3)nc3cccnc32)cc1", "survival": "inactive: 128%"},
      {"smiles": "COc1ccc(-c2cc(C)no2)cc1S(=O)(=O)Nc1c(C)cc(C)cc1C", "survival": "inactive: 89%"},
      {"smiles": "CCOc1ccc(OCC)c(NS(=O)(=O)c2cc(-c3cnc(C)o3)ccc2OC)c1", "survival": "inactive: 88%"},
      {"smiles": "CCOC(=O)CSC1=Nc2ccccc2C2=NC(CCC(=O)NCc3ccc(F)cc3)C(=O)N12", "note": "(configuration not stated)", "survival": "inactive: 69%"},
      {"smiles": "O=C(NCc1cccc(F)c1)C1CCCN(C(=O)N2CCOc3ccccc32)C1", "note": "(configuration not stated)", "survival": "inactive: 86%"},
      {"smiles": "O=c1nc(N2CCCC2)nc(N2CCCC2)[nH]1", "survival": "inactive: 78%"},
      {"smiles": "CC1CN(C(=O)N2CCC(C(=O)NCc3cccs3)CC2)c2cc(Cl)ccc2O1", "note": "(configuration not stated)", "survival": "inactive: 63%"},
      {"smiles": "Cc1ccc(C)c(NC(=O)C2CCCN(c3nc4ccccc4s3)C2)c1", "note": "(configuration not stated)", "survival": "inactive: 65%"},
      {"smiles": "CCN1CCN(C(C)C(=O)N(C(C)C)C(C)C)CC1", "note": "(configuration not stated)", "survival": "inactive: 107%"},
      {"smiles": "COC(=O)c1c(NC(=O)CCCOc2ccc(C(C)(C)C)cc2)sc2c1C(C(=O)OC)CC2", "note": "(configuration not stated)", "survival": "active: 3%"},
      {"smiles": "CCc1ccc(CNC(=O)C(C)n2ccc3cc(S(=O)(=O)N4CCCCCC4)ccc32)cc1", "note": "(configuration not stated)", "survival": "inactive: 94%"},
      {"smiles": "COc1ccc(N2CCN(C(=O)CCn3c(=O)[nH]c4cc(OC)c(OC)cc4c3=O)CC2)cc1", "survival": "inactive: 82%"},
      {"smiles": "Cc1ccc(CC/C=N/NC(N)=S)o1", "survival": "inactive: 75%"},
      {"smiles": "COc1cccc(C(=O)NCCc2csc(-c3ccc(Cl)cc3)n2)c1", "survival": "inactive: 89%"},
      {"smiles": "Cc1cccc(NC(=O)CCS(=O)(=O)c2cccc3nsnc23)c1C", "survival": "inactive: 70%"},
      {"smiles": "COc1ccccc1N1CCN(c2ncnc3onc(-c4ccc(F)cc4)c23)CC1", "survival": "inactive: 75%"},
      {"smiles": "Cc1ccc(NC(=O)C2CCN(S(=O)(=O)c3ccc4[nH]c5c(c4c3)CCCCC5)CC2)cc1", "survival": "inactive: 78%"},
      {"smiles": "CCn1c(=O)c2sccc2n2c(CCC(=O)NCc3ccc(Cl)cc3)nnc12", "survival": "inactive: 86%"},
      {"smiles": "CCS(=O)(=O)c1ccccc1C(=O)N1CCN(c2nc3ccccc3s2)CC1", "survival": "inactive: 55%"},
      {"smiles": "N#Cc1ccc(CSc2nnc(-c3ccc(Br)cc3)o2)cc1", "survival": "inactive: 87%"},
      {"smiles": "CCOC(=O)C1CCN(C(=O)Cn2ncc3c4ccccc4n(C)c3c2=O)CC1", "survival": "inactive: 71%"},
      {"smiles": "COc1ccc(CNC(=O)CCCN2C(=O)c3cccnc3Oc3ccc(Cl)cc32)cc1", "survival": "inactive: 78%"},
      {"smiles": "Cc1oc(-c2cccc(Cl)c2)nc1CSCC(=O)NCc1ccccc1Cl", "survival": "active: 0%"},
      {"smiles": "CCNC(=O)C1CCN(Cc2cc3ccccc3n2Cc2ccc(C)cc2)CC1", "survival": "inactive: 82%"},
      {"smiles": "CCOC(=O)c1c(C)oc2nc(C)nc(N3CCN(c4ccc(OC)cc4)CC3)c12", "survival": "inactive: 81%"},
      {"smiles": "CCOc1ccccc1CNC(=O)CCCN1C(=O)c2cccnc2Oc2ccc(Cl)cc21", "survival": "inactive: 83%"},
      {"smiles": "COc1ccccc1Cn1c(SCC(=O)C(C)(C)C)nc2ccccc2c1=O", "survival": "inactive: 83%"},
      {"smiles": "Clc1cccc(CSc2ccc(-c3cccs3)nn2)c1", "survival": "inactive: 116%"},
      {"smiles": "COC(=O)CN1C(C(=O)c2ccccc2)=C(OC(=O)c2ccc(C)cc2)c2ccccc2S1(=O)=O", "survival": "inactive: 43%"},
      {"smiles": "O=C(c1cccn1-c1nnc(N2CCCCC2)s1)N1CCN(c2ccccc2)CC1", "survival": "active: 0%"},
      {"smiles": "O=C(Cn1ncc2c3ccccc3n(Cc3ccccc3F)c2c1=O)NCCCc1ccccc1", "survival": "inactive: 81%"},
      {"smiles": "CCOc1ccc2nc(NC(=O)c3ccccc3)sc2c1", "survival": "active: 41%"},
      {"smiles": "COC(=O)c1ccccc1NC(=O)CSc1nc2nc(C)cc(C)n2n1", "survival": "inactive: 58%"},
      {"smiles": "Cc1ccc(C(=O)Nc2ccc(Br)cc2)cc1S(=O)(=O)NCc1ccccc1", "survival": "inactive: 83%"},
      {"smiles": "CCOc1ccccc1C(=O)N(Cc1ccco1)Cc1ccccc1F", "survival": "inactive: 78%"},
      {"smiles": "Cc1cccc(NS(=O)(=O)c2nnc(NC(=O)c3cccc(C)c3)s2)c1", "survival": "inactive: 61%"},
      {"smiles": "Cc1ccc(-n2c(SCC(=O)Nc3ccc4c(c3)OCCO4)nc3c([nH]c4ccccc43)c2=O)cc1", "survival": "inactive: 108%"},
      {"smiles": "COCCNC(=O)c1ccc(-c2nc(CN3CCc4ccccc43)c(C)o2)cc1", "survival": "inactive: 72%"},
      {"smiles": "Cc1ccc(OCC(=O)Nc2sc3c(c2C(N)=O)CCCC3)c(C(C)(C)C)c1", "survival": "inactive: 65%"},
      {"smiles": "Cc1csc2nc(COC(=O)c3ccc(NC(=O)C(C)C)cc3)cc(=O)n12", "survival": "inactive: 108%"},
      {"smiles": "CC(C)OCCCNC(=O)CN1C(=O)COc2ccc(S(=O)(=O)N3CCOCC3)cc21", "survival": "inactive: 79%"},
      {"smiles": "COc1ccccc1NC(=O)c1ncoc1-c1ccco1", "survival": "inactive: 61%"},
      {"smiles": "Cc1cccc(NC(=O)c2cc3c(=O)n4ccccc4nc3n2C)c1C", "survival": "inactive: 58%"},
      {"smiles": "CC(C)CCNc1ccc(-c2ccc(Cl)cc2)nn1", "survival": "inactive: 81%"},
      {"smiles": "COc1ccc(C)cc1NC(=O)N1CCN(c2nnc(C)c3c(C)n(-c4ccccc4)nc23)CC1", "survival": "inactive: 73%"},
      {"smiles": "O=C(Cn1c(=O)n(CCCS(=O)(=O)C2CCCCC2)c(=O)c2ccccc21)Nc1ccc(F)c(Cl)c1", "survival": "inactive: 82%"},
      {"smiles": "O=C(c1cnc(N2CCCCC2)c2ccccc12)N1CCN(c2cccc(Cl)c2)CC1", "survival": "inactive: 83%"},
      {"smiles": "COCCCNC(=O)c1nn(-c2ccc(C)cc2)c(=O)n(C)c1=O", "survival": "inactive: 84%"},
      {"smiles": "Cc1cc(C)cc(NC(=O)CCCn2c(=O)c3cccn3c3ccccc32)c1", "survival": "inactive: 59%"},
      {"smiles": "C=CCN1C(=O)CN=C1NCc1ccccc1", "survival": "inactive: 82%"},
      {"smiles": "COc1ccc(-c2nc3ccccc3s2)cc1NC(=O)COc1cccc(C)c1", "survival": "active: 16%"},
      {"smiles": "O=c1c(N2CCCCC2)csc2ccc(F)cc12", "survival": "inactive: 89%"},
      {"smiles": "CCc1nc2ccc(C(=O)NCc3cccc(Br)c3)cc2nc1CC", "survival": "inactive: 101%"},
      {"smiles": "CCc1ccc(S(=O)(=O)Nc2cc3c(cc2N2CCOCC2)n(C)c(=O)c(=O)n3C)cc1", "survival": "active: 6%"},
      {"smiles": "CCOc1ccc(NC(=O)C(=O)NCCc2ccccc2)cc1", "survival": "inactive: 67%"},
      {"smiles": "O=C(NC1CC(=O)N(c2ccccc2)C1)c1ccco1", "note": "(configuration not stated)", "survival": "inactive: 68%"},
      {"smiles": "Cc1ccc(C(=O)N2CCc3cc(CNC(=O)CCc4ccccc4)ccc32)cc1", "survival": "inactive: 117%"},
      {"smiles": "COc1cccc(C(=O)NCCc2csc(-c3cccc(F)c3)n2)c1OC", "survival": "inactive: 75%"},
      {"smiles": "CCc1cccc(NC(=O)CN(c2ccc(C)cc2)S(=O)(=O)c2cccs2)c1", "survival": "inactive: 64%"},
      {"smiles": "O=C(Nc1ccc(F)cc1)Nc1ccc2snnc2c1", "survival": "active: 19%"},
      {"smiles": "CCc1cccc(NC(=O)Cn2ncc3c([nH]c4ccc(C)cc43)c2=O)c1", "survival": "inactive: 85%"},
      {"smiles": "CCOc1ccccc1NC(=O)CCc1c(C)nc2c3cccnc3nn2c1C", "survival": "inactive: 78%"},
      {"smiles": "CCCCNc1sc(S(=O)(=O)CCC)nc1S(=O)(=O)c1ccc(C)cc1", "survival": "inactive: 86%"}
    ]}
  ]
}
